Reference: PubChem BioAssay AID1454 (National Center for Advancing Translational Sciences (NCATS), 2008)
Several values for one entry are separate records, joined by “and”; a condition that tells them apart may be missing. Identical values can stand only once. Screen size: about 130,000 compounds; about 550 (0.42%) were called active. The inconclusive results got no clear call from the source; some entries with a clear call stand among them for comparison. Calls follow the shape of the dose curve; as a rule, active = well fitted inhibition curve with a large enough effect; inconclusive = small, poorly fitted or top-dose-only effect, or effect the other way; inactive = flat fitted curve, though single readings scatter. A potency beside an inconclusive call is a rough fit, not a confirmed value.

Assay: qHTS Assay for Inhibitors of the ERK Signaling Pathway using a Homogeneous Screening Assay; Stimulation with EGF; also: nearly all actives have a fitted effect of over 55% in size;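 as to activity change, negative = inhibition: plate controls were stimulated vehicle wells for no effect and unstimulated vehicle basal for full effect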
Conditions: HEK293-V1b, EGF-stimulated phospho-ERK AlphaScreen; activity change, negative = inhibition: at the top concentration
Summary of the method: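 Homogeneous cell-based phospho-ERK assay: HEK293/V1b cells in 1% FBS, compound 30 min then EGF 5 min, AlphaScreen luminescence. Activity normalized between DMSO and 25 nM EGF controls; AC50 from Hill modelling.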
Potency is read from the fitted curve at half-maximal effect; tags tell the direction and shape of the fitted curve.

**Q.** Which Potency does the source give for `O=C(c1cccs1)N1CCN(c2nnc(-c3ccccc3)c3ccccc23)CC1` here?
**A.** Its Potency is inconclusive: 39.8 µM [inhibitor, single point].

**Q.** With `COc1ccc(CN(C)Cc2nc(Cc3ccccc3Cl)no2)cc1OC` as the compound, how does the Potency read?
**A.** Its Potency is inconclusive: 31.6 µM [inhibitor, single point].

**Q.** Which Potency does the source give for `O=C1NCN(c2ccccc2)C12CCN(CCCC(c1ccc(F)cc1)c1ccc(F)cc1)CC2` here?
**A.** The Potency was inconclusive: 39.8 µM [inhibitor, single point].

**Q.** With `CCOc1ccc(NC(=S)N(CCN2CCOCC2)Cc2ccc3c(c2)CCCN3CC)cc1` as the compound, how does the Potency read?
**A.** The Potency was inconclusive: 17.8 µM [inhibitor, single point].

**Q.** With `COc1nsnc1NS(=O)(=O)c1ccc(NC(=S)NC(=O)c2cccnc2)cc1` as the compound, how does the “activity change, negative = inhibition” value read?
**A.** Its value is inactive: -2.45%.

**Q.** With `Cc1cc2c(c(SCC(=O)Nc3ccc(C)c(C)c3)n1)C(=O)OC2` as the compound, how does the “activity change, negative = inhibition” value read?
**A.** The value was inactive: -0.805%.

**Q.** For `COc1cccc(/C=N/NC(=O)CNC(=O)C2COc3ccccc3O2)c1O` (configuration not stated), which “activity change, negative = inhibition” value is on record?
**A.** The value was inactive: 6.78%.

**Q.** For `O=C(C1CCCN(S(=O)(=O)c2ccccc2)C1)N1CCN(c2ncccn2)CC1` (configuration not stated), which Potency is on record?
**A.** The Potency was inconclusive: 3.16 µM [inhibitor, single point].

**Q.** Which Potency does the source give for `COc1cc(C(=O)NCCCc2nc3ccccc3n2Cc2cc(C)ccc2C)cc(OC)c1OC` here?
**A.** The Potency was inconclusive: 10 µM [inhibitor, partial curve].

**Q.** For `CCOc1ccc2ccccc2c1CNc1nnnn1C`, which Potency is on record?
**A.** Its Potency is inconclusive: 3.16 µM [inhibitor, single point].

**Q.** Which Potency does the source give for `CCCCNc1nc(C)nc2c1nc(-c1ccccc1)n2CCN(C)C` here?
**A.** Its Potency is inconclusive: 28.2 µM [inhibitor, single point].

**Q.** With `c1ccc2c(CCNc3ncnc4nc[nH]c34)c[nH]c2c1` as the compound, how does the Potency read?
**A.** The Potency was inconclusive: 31.6 µM [inhibitor, single point].

**Q.** With `COc1ccccc1C1CCN(c2cc(O)ccc2[N+](=O)[O-])CC1` as the compound, how does the Potency read?
**A.** The Potency was inconclusive: 35.5 µM [inhibitor, single point].

**Q.** For `O=[N+]([O-])c1cc(C(F)(F)F)ccc1NCCc1c[nH]c2ccccc12`, which Potency is on record?
**A.** Its Potency is inconclusive: 20 µM [inhibitor, single point].

**Q.** With `Cc1cc(Nc2ccc(Br)cc2F)n2ncnc2n1` as the compound, how does the Potency read?
**A.** The Potency was inconclusive: 12.6 µM [inhibitor, single point].

**Q.** Which Potency does the source give for `O=C(NC(=S)Nc1ccc(F)cc1)c1ccc2c(c1)OCCO2` here?
**A.** Its Potency is inconclusive: 28.2 µM [inhibitor, single point].

**Q.** For `COC(=O)c1[nH]c2ccccc2c1NC(=O)/C=C/c1ccc2c(c1)OCO2`, which Potency is on record?
**A.** Its Potency is inconclusive: 5.01 µM [inhibitor, full curve].

**Q.** With `COc1ccc2c(c1)O[C@@H](c1cccc(C(F)(F)F)c1)[C@H](OC(=O)NC1CCCC1)C2=O` as the compound, how does the “activity change, negative = inhibition” value read?
**A.** The value was inactive: 0.327%.

**Q.** With `CC(C)COc1ccc(C(=O)N/C(=C/c2cccc([N+](=O)[O-])c2)C(=O)O)cc1` as the compound, how does the Potency read?
**A.** The Potency was inconclusive: 0.631 µM [inhibitor, full curve, poor fit].

**Q.** Which Potency does the source give for `COc1cc(C(CCN2CCCC(C)C2)c2c(OC)cc(OC)c3c2OC(=O)CC3c2ccc(N(C)C)cc2)cc(OC)c1OC` (configuration not stated) here?
**A.** Its Potency is inconclusive: 7.08 µM [inhibitor, partial curve].

**Q.** Which Potency does the source give for `CC(=O)Nc1cccc(NC(=S)Nc2ccc(F)cc2F)c1` here?
**A.** Its Potency is inconclusive: 11.2 µM [activator, partial curve, poor fit].

**Q.** Which Potency does the source give for `Cc1ccc(SCCC(=O)OCC(=O)Nc2ccc(S(N)(=O)=O)cc2)cc1` here?
**A.** The Potency was inconclusive: 0.1 µM [activator, full curve, poor fit].

**Q.** For `CCN(CC)c1ccc(/C=N/NC(=O)c2cc(C)nc3ccccc23)cc1`, which Potency is on record?
**A.** The Potency was inconclusive: 11.2 µM [inhibitor, partial curve].

**Q.** Which Potency does the source give for `CC[C@H]1OC(=O)[C@H](C)[C@@H](O[C@H]2C[C@@](C)(OC)[C@@H](O)[C@H](C)O2)[C@H](C)[C@@H](O[C@@H]2O[C@H](C)C[C@H](N(C)C)[C@H]2O)[C@](C)(OC)C[C@@H](C)C(=O)[C@H](C)[C@@H](O)[C@]1(C)O` here?
**A.** Its Potency is inconclusive: 3.98 µM [inhibitor, single point].

**Q.** Which Potency does the source give for `N#C/C(=N\Nc1cccc(F)c1)C(=N)N1CCCCCC1` here?
**A.** The Potency was inconclusive: 39.8 µM [inhibitor, single point].

**Q.** With `CCOC(=O)c1sc2cccc(Cl)c2c1N` as the compound, how does the Potency read?
**A.** Its Potency is inconclusive: 17.8 µM [activator, partial curve].

**Q.** Which Potency does the source give for `COCCn1nnnc1C(C(C)C)N1CCSCC1` (configuration not stated) here?
**A.** The Potency was inconclusive: 11.2 µM [activator, full curve, poor fit].

**Q.** Which Potency does the source give for `O=C(O)c1sc2cccc(Cl)c2c1Cl` here?
**A.** The Potency was inconclusive: 39.8 µM [inhibitor, single point].

**Q.** With `NNC(=O)c1ccc2c(c1)S(=O)(=O)NNC2=O` as the compound, how does the “activity change, negative = inhibition” value read?
**A.** The value was inactive: 2.49%.

**Q.** For `COc1cccc([C@@H]2Oc3ccc(Br)cc3C(=O)[C@H]2OC(=O)NCc2ccco2)c1`, which “activity change, negative = inhibition” value is on record?
**A.** The value was inactive: 8.6%.

**Q.** For `COc1ccc(Nc2oc(COc3ccc(OC)cc3)nc2C#N)cc1`, which Potency is on record?
**A.** The Potency was inconclusive: 39.8 µM [inhibitor, single point].

**Q.** For `CCC(=O)Nc1ccc(C(=O)Cn2ncc(Cl)c(Cl)c2=O)cc1`, which “activity change, negative = inhibition” value is on record?
**A.** Its value is inactive: -3.38% [at 57.5 µM].

**Q.** Which Potency does the source give for `CC1=CC2C(C)(C)CC(=O)C[C@]2(C)CC1COc1ccc2c(c1)CC(=O)C=C2` (some centres not stated) here?
**A.** Its Potency is inconclusive: 39.8 µM [inhibitor, single point].

**Q.** For `O=[N+]([O-])c1ccccc1/C=C/C=N/Nc1ccc(S(=O)(=O)Nc2ccc(Cl)cc2)cc1[N+](=O)[O-]`, which Potency is on record?
**A.** Its Potency is inconclusive: 8.91 µM [inhibitor, partial curve].

**Q.** With `OCCN1CCN(c2cc(C(F)(F)F)nc3ccccc23)CC1` as the compound, how does the Potency read?
**A.** The Potency was inconclusive: 1 µM [inhibitor, full curve].

**Q.** Which Potency does the source give for `CC(C)Cn1c(N)c(C(=O)COC(=O)c2cc(C(F)(F)F)nc3ccccc23)c(=O)n(C)c1=O` here?
**A.** Its Potency is inconclusive: 39.8 µM [inhibitor, single point] and inconclusive: 31.6 µM [inhibitor, partial curve].

**Q.** Which Potency does the source give for `CCOC(=O)C1=C(C)N(c2ccccc2)C(=O)/C1=C\c1cccs1` here?
**A.** The Potency was inconclusive: 12.6 µM [inhibitor, partial curve].

**Q.** With `CN(C)S(=O)(=O)c1cc(NC2CC(=O)N(c3ccc(F)cc3)C2=O)ccc1Cl` (configuration not stated) as the compound, how does the Potency read?
**A.** The Potency was inconclusive: 39.8 µM [inhibitor, single point].

**Q.** Which Potency does the source give for `CCOc1cccc2sc(NN)nc12` here?
**A.** Its Potency is inconclusive: 39.8 µM [inhibitor, single point].

**Q.** With `O=C(N[C@@H](Cc1c[nH]c2ccccc12)C(=O)O)c1ccc(Cl)cc1` as the compound, how does the Potency read?
**A.** The Potency was inconclusive: 6.31 µM [activator, full curve, poor fit].

**Q.** For `CC1(c2ccc(Cl)cc2)NC(=O)CS1` (configuration not stated), which Potency is on record?
**A.** The Potency was inconclusive: 0.1 µM [activator, full curve, poor fit].

**Q.** With `COc1ccc(CNS(=O)(=O)c2ccc(F)c(C(=O)Nc3ccc(OC)cc3)c2)cc1` as the compound, how does the Potency read?
**A.** Its Potency is inconclusive: 28.2 µM [inhibitor, single point].

**Q.** Which Potency does the source give for `COc1ccccc1[C@@H]1C(c2cccc(Cl)c2)=NN(c2ccc(Br)cc2)[C@H]1C(=O)N1CCOC1=O` here?
**A.** Its Potency is inconclusive: 22.4 µM [activator, partial curve].

**Q.** Which Potency does the source give for `CCN1/C(=C2\C(=O)N(C)C(=S)N2C)C=Cc2cc(C)ccc21` here?
**A.** The Potency was inconclusive: 14.1 µM [inhibitor, partial curve].

**Q.** With `O=C1c2ccccc2C(Nc2ccc3c(c2)OCCO3)N1c1ccccn1` (configuration not stated) as the compound, how does the Potency read?
**A.** The Potency was inconclusive: 22.4 µM [inhibitor, single point].

**Q.** Which “activity change, negative = inhibition” value does the source give for `CCCC(=O)NC(c1cccs1)c1cc([N+](=O)[O-])c2cccnc2c1O` (configuration not stated) here?
**A.** The value was inactive: -1.79%.

**Q.** Which “activity change, negative = inhibition” value does the source give for `OCCC1CN(Cc2cccc3nonc23)CCN1Cc1ccsc1` (configuration not stated) here?
**A.** Its value is inactive: 14.8% [at 57.5 µM].

**Q.** With `CCCCNc1nc(C)nc2c1nc(-c1ccccc1)n2CCCN1CCCCC1C` (configuration not stated) as the compound, how does the Potency read?
**A.** The Potency was inconclusive: 35.5 µM [inhibitor, partial curve].

**Q.** Which Potency does the source give for `COC(=O)Cc1ccc(NC(=S)NCCSc2ccc(C)cc2)cc1` here?
**A.** Its Potency is inconclusive: 14.1 µM [inhibitor, partial curve].

**Q.** Which Potency does the source give for `Cc1n[nH]c(C)c1N1C(=O)c2cccc3c(Br)ccc(c23)C1=O` here?
**A.** The Potency was inconclusive: 3.55 µM [inhibitor, partial curve].

**Q.** With `Cc1ccc(NS(=O)(=O)c2cc([N+](=O)[O-])ccc2NNC(=S)Nc2cccc(Cl)c2)c(C)c1` as the compound, how does the Potency read?
**A.** Its Potency is inconclusive: 28.2 µM [inhibitor, single point].

**Q.** For `CC(CCc1ccccc1)NC(=O)/C=C/c1ccccc1` (configuration not stated), which Potency is on record?
**A.** Its Potency is inconclusive: 5.01 µM [activator, full curve, poor fit].

**Q.** For `COc1ccc(C(=O)C2CCCN(C/C=C/c3ccccc3OC)C2)c(OC)c1` (configuration not stated), which Potency is on record?
**A.** Its Potency is inconclusive: 20 µM [inhibitor, partial curve].

**Q.** Which Potency does the source give for `O=S(=O)(c1ccccc1)N1CCC2(CC1)CN(c1ccncc1)C2` here?
**A.** Its Potency is inconclusive: 0.282 µM [inhibitor, full curve, poor fit].

**Q.** For `O=C1C2C(C(=O)N1/N=C/c1ccc(N3CCCCC3)o1)C1C=CC2C12CC2` (configuration not stated), which Potency is on record?
**A.** Its Potency is inconclusive: 10 µM [inhibitor, partial curve].

**Q.** For `Cc1ccc(NC(=O)CN(C)c2ccc(S(=O)(=O)N3CCCC3)cn2)cc1`, which Potency is on record?
**A.** Its Potency is inconclusive: 0.0891 µM [activator, full curve, poor fit].

**Q.** With `O=C(CN1CCN(S(=O)(=O)c2ccccc2)CC1)NC(=O)NCc1ccco1` as the compound, how does the “activity change, negative = inhibition” value read?
**A.** Its value is inactive: 5.52% [at 57.5 µM].

**Q.** Which “activity change, negative = inhibition” value does the source give for `CC/C(=N\NC(=O)C(N)=O)c1ccccc1O` here?
**A.** The value was inactive: 4.78%.

**Q.** For `CC(C)c1ccc2c(c1)C1(NN=C(c3ccccc3)S1)C(=O)N2` (configuration not stated), which Potency is on record?
**A.** Its Potency is inconclusive: 35.5 µM [inhibitor, single point].

**Q.** With `CC1CCC(C(C)C)C(OC(=O)C[n+]2cc(-c3ccc(Cl)cc3)n3c2CCC3)C1` (configuration not stated) as the compound, how does the Potency read?
**A.** Its Potency is inconclusive: 35.5 µM [inhibitor, single point].

**Q.** With `COc1ccc(-c2csc(NC(=O)c3ccccc3S(C)(=O)=O)n2)cc1` as the compound, how does the Potency read?
**A.** The Potency was inconclusive: 39.8 µM [inhibitor, single point].

**Q.** For `CN(C)c1cc2c(Nc3ccc4c(cnn4Cc4ccccc4)c3)ncnc2cn1`, which Potency is on record?
**A.** The Potency was active: 2.82 µM.
